The campaign covered roughly 270,000 compounds. About 620 (0.23%) were called active. Inconclusive means that the source gave no clear call. Such entries were picked first, then a sample of the others. Calls come from the whole dose curve; as a rule, active = well fitted inhibition curve with a large enough effect in the polarisation, with a control signal flat (not every such curve was filed as active); inconclusive = small, poorly fitted or top-dose-only effect, or effect the other way, or a change in a side signal; inactive = no such curve, though single readings can be large or run the other way; the % refers to the polarisation. Potencies beside an inconclusive call are fits to weak or partial responses and may not hold up. A note “side channel” means that the fit belongs to a control or component signal, not to the main read-out.
biological target: Menin (Homo sapiens) (UniProt O00255); assay: qHTS Assay for Inhibitors Targeting the Menin-MLL Interaction in MLL Related Leukemias: Competition With Texas Red Labeled MLL-derived Mutant Peptide; conditions: fluorescence polarization; FP activity change, negative = inhibition: at 61.6 µM (top of the series); for FP activity change, negative = inhibition: % of control where 0% means no effect
Sequence of UniProt O00255 (O00255 whole entry, looked up): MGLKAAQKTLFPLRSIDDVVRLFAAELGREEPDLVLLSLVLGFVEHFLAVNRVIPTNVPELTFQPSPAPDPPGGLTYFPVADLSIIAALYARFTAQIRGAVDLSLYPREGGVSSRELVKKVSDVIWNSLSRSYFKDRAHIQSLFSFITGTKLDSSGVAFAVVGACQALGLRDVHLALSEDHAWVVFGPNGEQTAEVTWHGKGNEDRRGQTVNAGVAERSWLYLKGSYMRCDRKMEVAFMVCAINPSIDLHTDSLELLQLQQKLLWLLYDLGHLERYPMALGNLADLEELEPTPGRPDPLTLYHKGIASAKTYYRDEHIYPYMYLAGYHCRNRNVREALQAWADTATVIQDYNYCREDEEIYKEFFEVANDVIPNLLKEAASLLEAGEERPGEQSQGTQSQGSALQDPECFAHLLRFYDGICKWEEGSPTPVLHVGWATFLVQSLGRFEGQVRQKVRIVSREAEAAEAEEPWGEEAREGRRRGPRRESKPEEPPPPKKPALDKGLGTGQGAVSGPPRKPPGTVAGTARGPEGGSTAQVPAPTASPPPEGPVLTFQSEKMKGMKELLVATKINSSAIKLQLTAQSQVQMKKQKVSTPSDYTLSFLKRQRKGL
Potency is the fitted concentration of half-maximal effect; tags give direction and shape of the fitted curve or compound fluorescence and quenching.

SMILES	Potency	FP activity change, negative = inhibition
c1ccc(-c2cn3nc(-c4ccccc4)c(-c4ccccc4)nc3n2)cc1	inconclusive: 8.91 µM [inhibitor, partial curve]	
CC(C)(C)Nc1nc(Nc2ccc([N+](=O)[O-])cc2)nc(NC(C)(C)C)n1	inconclusive: 10 µM [quencher, side channel, partial curve]	
CCOC(=O)C1=C(C)NC(C)=C(C(=O)OCC)C1c1cc2ccc(C)cc2[nH]c1=O	inconclusive: 39.8 µM [fluorescent, side channel, single point]	
CCN(C(=O)c1cc(Cl)ccc1OC)c1ccccc1C	inconclusive: 28.2 µM [inhibitor, single point]	
O=C(COC(=O)CCN1C(=O)/C(=C\C=C\c2ccccc2)SC1=S)Nc1ccc(Br)cc1	inconclusive: 1.58 µM [quencher, side channel, partial curve, poor fit]	
CCOc1ccc(C2NC(=O)C(C#N)=C(S)N2c2ccc(OC)cc2)cc1OC (stereo unspecified)	inconclusive: 20 µM [quencher, side channel, partial curve]	
Cc1ccc(CSc2nc3c(c(=O)[nH]c(=O)n3C)n2CCC(C)C)cc1	inconclusive: 2 µM [fluorescent, side channel, full curve]	
CC1CCN(C(=O)Cn2nnc(-c3cccs3)n2)CC1		inactive: 6.15%
O=C(/C=C/c1ccccc1)Nc1cccc(S(=O)(=O)Nc2ccccc2F)c1	inconclusive: 15.8 µM [quencher, side channel, partial curve]	
O=C(N/N=C\C=C\c1ccc([N+](=O)[O-])o1)c1cccs1	inconclusive: 39.8 µM [quencher, side channel, single point]	
COC(=O)c1cc(=O)n(C2CC2)c(=NC2CC2)s1	inconclusive: 11.2 µM [inhibitor, single point]	
COc1cccc(C2CC(c3cccs3)=NN2C(=O)CSc2nc3ccccc3s2)c1OC (stereo unspecified)	inconclusive: 31.6 µM [inhibitor, single point]	
O=C(NNC(=O)c1ccc(O)cc1O)c1ccc(-c2ccccc2)cc1	inconclusive: 28.2 µM [quencher, side channel, partial curve]	
CCn1cc(Br)c(C(=O)Nc2ccc(Cl)c(Cl)c2)n1	inconclusive: 28.2 µM [quencher, side channel, single point]	
CSC1=NSC2=NC(=O)/C(=C\c3ccc(OC(=O)c4ccco4)cc3)C(=N)N12	inconclusive: 15.8 µM [quencher, single point]	
CC(=O)Nc1ccc(S(=O)(=O)N2CCN(S(=O)(=O)c3ccc(F)c(F)c3F)CC2)cc1	inconclusive: 11.2 µM [fluorescent, side channel, partial curve]	
Cc1ccc(Nc2c(N)c(=O)oc3ccccc23)cc1		inactive: -1.12%
Cc1cc(C)nc(/N=C(/NC(=O)Nc2cccc(Cl)c2)Nc2ccccc2)n1	inconclusive: 22.4 µM [inhibitor, single point]	
CC(=O)Nc1cc2c(cc1NC(=O)Cn1nc(-c3ccc(F)cc3)ccc1=O)OCCO2	inconclusive: 39.8 µM [fluorescent, side channel, single point]	

SMILES	Potency	FP activity change, negative = inhibition
CC(=O)Nc1ccc(OCCOc2ccc(/C=C3/C(=N)N4C=CSC4=NC3=O)cc2)cc1	inconclusive: 12.6 µM [quencher, side channel, partial curve]	
COc1ccc2c(c1)CC/C(=C\C=C\c1ccccc1OC)C2=O	inconclusive: 31.6 µM [quencher, side channel, single point]	
COc1ccc(CC2=C(O)c3ccccc3C(=O)C2=O)cc1	inconclusive: 35.5 µM [quencher, side channel, single point]	
Cc1snc(S(=O)(=O)/C(C#N)=N\Nc2ccccc2)c1C#N	inconclusive: 31.6 µM [quencher, side channel, single point]	
O=C(Oc1cccc(NC(=O)c2ccco2)c1)c1cccc(S(=O)(=O)N2CCCC2)c1	inconclusive: 15.8 µM [quencher, side channel, partial curve]	
O=C(O)CCC(=O)N1N=C(c2cccs2)CC1c1cn(-c2ccccc2)nc1-c1ccccc1 (stereo unspecified)		inactive: -4.51%
CCOC(=O)Cn1nc(/C=C/c2ccc(C(C)C)cc2)ccc1=O	inconclusive: 10 µM [fluorescent, side channel, partial curve]	
CCOc1ccc(N2C(=O)CC(Sc3nc(CC(C)C)ccc3C#N)C2=O)cc1 (stereo unspecified)	inconclusive: 25.1 µM [quencher, side channel, single point]	
CN1C(=O)C(CC(=O)Nc2ccc(F)cc2)N(CCCc2ccccc2)C1=S (stereo unspecified)	inconclusive: 25.1 µM [quencher, side channel, partial curve]	
O=C(c1ccccc1SCc1ccccc1)N1CCCCCC1	inconclusive: 14.1 µM [fluorescent, side channel, partial curve]	
CC(C)CCn1nnnc1CN1CCN(C(c2ccccc2)c2ccccc2)CC1	inconclusive: 1.58 µM [fluorescent, side channel, full curve, poor fit]	
CC(Oc1ccccc1)C(=O)Nc1ccccc1O (stereo unspecified)		inactive: 9.54%
CCCCOc1ccc2c(c1)C(=O)c1cc(O)ccc1-2	inconclusive: 28.2 µM [quencher, side channel, partial curve]	
COc1ccccc1NC(=O)Nc1ccc(NC(=O)c2ccccc2O)cc1	inconclusive: 17.8 µM [quencher, side channel, partial curve]	
COc1cccc(N=Cc2ccc(O)cc2O)c1	inconclusive: 3.98 µM [quencher, side channel, full curve]	
COc1ccc(/C=N/NC(=O)c2ccc(NC(=O)c3cccc([N+](=O)[O-])c3)cc2)c(OC)c1	inconclusive: 3.98 µM [quencher, side channel, partial curve]	
CCCC(NC(=O)c1c(C)noc1C)C12CC3CC(CC(C3)C1)C2 (stereo unspecified)	inconclusive: 6.31 µM [fluorescent, side channel, partial curve]	
CCCCNc1nc(C)nc2c1nc(-c1ccccc1)n2CCN1CCCC1		inactive: -0.82%
Cc1ccc(NC(=O)CN2C(=O)N/C(=C/c3ccc(C)o3)C2=O)cc1	inconclusive: 25.1 µM [quencher, side channel, partial curve]	

SMILES	Potency	FP activity change, negative = inhibition
O=C(CC1SC(=Nc2ccccc2)N(Cc2ccccn2)C1=O)Nc1ccc(Br)cc1 (stereo unspecified)	inconclusive: 11.2 µM [quencher, side channel, partial curve]	
NC(=O)CC(NC(=O)c1ccccc1)c1ccc(N2CCN(c3ccccc3)CC2)c([N+](=O)[O-])c1 (stereo unspecified)	inconclusive: 31.6 µM [quencher, side channel, single point]	
O=C(NC(=S)Nc1ccc(S(=O)(=O)N2CCOCC2)cc1)c1ccccc1[N+](=O)[O-]	inconclusive: 22.4 µM [quencher, single point]	
COc1cccc(C(=O)Nc2ccc3c(c2)C(=O)c2ccccc2C3=O)c1	inconclusive: 11.2 µM [quencher, side channel, partial curve]	
Cc1cccc(OCC(O)CN2CCN(CCN3C(=O)c4cccc5cccc(c45)C3=O)CC2)c1C (stereo unspecified)	inconclusive: 7.08 µM [fluorescent, side channel, partial curve]	
COc1ccc([N+](=O)[O-])cc1NC(=O)Nc1ccccc1	inconclusive: 14.1 µM [quencher, side channel, partial curve]	
COC(=O)N1CCC2(CC1)CCN(c1ccccc1)CC2	inconclusive: 0.141 µM [fluorescent, side channel, full curve, poor fit]	
Cc1ccc(NC(=O)C(C)N2C(=O)C3C4CC(C(Br)C4Br)C3C2=O)cc1 (stereo unspecified)	inconclusive: 10 µM [quencher, side channel, partial curve]	
O=c1[nH]c2ccccc2nc1Cc1ccc([N+](=O)[O-])cc1	inconclusive: 31.6 µM [quencher, side channel, partial curve]	
Cc1cccc(NC(=S)NCc2cccn2C)c1	inconclusive: 39.8 µM [quencher, side channel, single point]	
FC(F)(F)c1cc(-c2ccccc2)nc2nc(N3CCOCC3)sc12	inconclusive: 8.91 µM [inhibitor, full curve]	
CCOc1ccccc1C(=O)NCCc1cnc[nH]1	inconclusive: 22.4 µM [inhibitor, single point]	
COc1ccc(/C=N/N2CCN(c3ccc(Cl)cc3)CC2)cc1O	inconclusive: 15.8 µM [quencher, side channel, single point]	
Oc1ccc(/C=N/Nc2ccc(Cl)nn2)cc1O	inconclusive: 17.8 µM [quencher, side channel, partial curve]	
CCN(CC)c1ccc(NC(=O)CNCc2ccccc2Cl)c(C)c1	inconclusive: 4.47 µM [fluorescent, side channel, partial curve]	
Nc1nc(CN2CCN(c3ccccc3)CC2)nc(N2CCCc3ccccc32)n1	inconclusive: 31.6 µM [fluorescent, side channel, single point]	
CC(C)(C)OC(=O)N/N=C/c1c[nH]c2ccccc12	inconclusive: 25.1 µM [quencher, side channel, single point]	
CCOC(=O)N1CCN(Cc2ccccn2)CC1		inactive: -12.4%
